# Experimental data taken from ChEMBL document CHEMBL4689842, “EUbOPEN Chemogenomics Library wave 1” (2021).
# Some entries of the source have several records that differ or are many. Only these are listed. The source may hold further records. The records of an entry are repeats across runs, samples, wells, individuals or studies.
# Columns and labels:
# Format in all cases: toxicity, cell-based
# [1] = system: HEK-293T; experiment: Multiplex assay against HEK293T; settings: human;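 for Population Tubulin-Different-Phenotype (%): share of the cells with healthy nuclei that show this phenotype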
# Outline: (§1)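 Hoechst33342, BioTracker Green Microtubule Cytoskeleton Dye, MitoTracker Red and Annexin V Alexa Fluor 680 were added to live cells at seeding, and imaging on a CQ1 microscope at 37°C and 5% CO2 followed compound addition. Gating by CellPathfinder machine learning separated cells into Hoechst high-intensity objects or normal cells, then normal cells into healthy, pyknosed or fragmented nuclei, then pyknosed cells into mitotic or apoptotic. Per cents of healthy-nucleus cells are reported for the tubulin, mitochondrial-mass and membrane-permeability phenotypes.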
# [2] = system: U2OS; experiment: Multiplex assay against U2OS; settings: human; outline: as §1
# [3] = system: Fibroblast; experiment: Multiplex assay against human fibroblast; outline: as §1
# [4] = 12 h, 10 µM, compound concentration 10 uM, replicate 1
# [5] = 12 h, 10 µM, compound concentration 10 uM, replicate 2
# [6] = 24 h, 10 µM, compound concentration 10 uM, replicate 1
# [7] = 24 h, 10 µM, compound concentration 10 uM, replicate 2
# [8] = 12 h, 1 µM, compound concentration 1 uM, replicate 1
# [9] = 12 h, 1 µM, compound concentration 1 uM, replicate 2
# [10] = 24 h, 1 µM, compound concentration 1 uM, replicate 1
# [11] = 24 h, 1 µM, compound concentration 1 uM, replicate 2
compound,measurement,setting,value
COc1ccc(Oc2cc(NCCC(F)(F)F)c3ncc(-c4ccc(C(=O)NC5CC5)c(C)c4)n3n2)c(F)c1F [BAY-1217389],Population Mitochondria Different-Phenotype (%),[1]; [4],53% and 11%
same,Population Membrane Permeable-Phenotype (%),[1]; [5],16% and 4%
same,Population Mitochondria Different-Phenotype (%),[1]; [5],21% and 69%
same,Population Mitochondria Different-Phenotype (%),[1]; [6],63% and 10%
same,Population Pyknosed Nuclei (%),[1]; [6],28% and 9%
same,Population Apoptotic (%),[1]; [7],5% and 31%
same,Population Membrane Permeable-Phenotype (%),[1]; [7],26% and 6%
same,Population Mitochondria Different-Phenotype (%),[1]; [7],8% and 61%
same,Population Pyknosed Nuclei (%),[1]; [7],2% and 7%
same,Population Mitochondria Different-Phenotype (%),[2]; [4],22% and 73%
same,Population Mitochondria Different-Phenotype (%),[2]; [5],23% and 92%
same,Population Pyknosed Nuclei (%),[2]; [5],5% and 20%
same,Population Mitochondria Different-Phenotype (%),[3]; [4],22% and 4%
same,Population Mitochondria Different-Phenotype (%),[3]; [6],50% and 9%
same,Population Apoptotic (%),[3]; [7],67% and 11%
same,Total Cell Count,[3]; [7],284 and 82
CNCc1ccc(-c2cc(-c3nc(-c4ccc(S(=O)(=O)C(C)C)cc4)cnc3N)on2)cc1 [BERZOSERTIB],Population Healthy Nuclei (%),[1]; [8],4% and 14%
same,Population Pyknosed Nuclei (%),[1]; [8],1% and 5%
same,Population Healthy Nuclei (%),[1]; [9],2% and 21%
same,Population Membrane Permeable-Phenotype (%),[1]; [9],18% and 66%
same,Population Normal (%),[1]; [9],71% and 20%
same,Population Pyknosed Nuclei (%),[1]; [9],2% and 12%
same,Population Apoptotic (%),[1]; [5],31% and 7%
same,Population Healthy Nuclei (%),[1]; [5],2% and 30%
same,Population Membrane Permeable-Phenotype (%),[1]; [5],0% and 31%
same,Population Normal (%),[1]; [5],65% and 13%
same,Population Pyknosed Nuclei (%),[1]; [5],2% and 13%
same,Population Healthy Nuclei (%),[1]; [10],5% and 26%
same,Population Apoptotic (%),[1]; [11],12% and 2%
same,Population Fragmented Nuclei (%),[1]; [11],94% and 19%
same,Population Healthy Nuclei (%),[1]; [11],2% and 49%
same,Population Normal (%),[1]; [11],66% and 14%
same,Population Apoptotic (%),[1]; [6],59% and 11%
same,Population Mitochondria Different-Phenotype (%),[1]; [6],10% and 2%
same,Population Fragmented Nuclei (%),[1]; [7],95% and 19%
same,Population Healthy Nuclei (%),[1]; [7],1% and 61%
same,Population Normal (%),[1]; [7],63% and 13%
same,Population Pyknosed Nuclei (%),[1]; [7],2% and 19%
same,Population Fragmented Nuclei (%),[2]; [8],11% and 96%
same,Population Normal (%),[2]; [8],68% and 18%
same,Population Pyknosed Nuclei (%),[2]; [8],82% and 2%
same,Population Mitochondria Different-Phenotype (%),[2]; [9],35% and 0%
same,Population Tubulin-Different-Phenotype (%),[2]; [9],14% and 77%
same,Total Cell Count,[2]; [9],88 and 359
same,Population Fragmented Nuclei (%),[2]; [4],26% and 94%
same,Population Pyknosed Nuclei (%),[2]; [4],68% and 5%
same,Total Cell Count,[2]; [4],348 and 3110
same,Population Pyknosed Nuclei (%),[2]; [5],51% and 1%
same,Population Tubulin-Different-Phenotype (%),[2]; [5],10% and 75%
same,Total Cell Count,[2]; [5],293 and 3113
same,Population Fragmented Nuclei (%),[2]; [10],98% and 22%
same,Population Mitochondria Different-Phenotype (%),[2]; [10],0% and 55%
same,Population Pyknosed Nuclei (%),[2]; [10],0% and 66%
same,Population Healthy Nuclei (%),[2]; [11],20% and 1%
same,Population Mitochondria Different-Phenotype (%),[2]; [6],0% and 61%
same,Total Cell Count,[2]; [6],3346 and 325
same,Population Membrane Permeable-Phenotype (%),[2]; [7],31% and 100%
same,Population Pyknosed Nuclei (%),[2]; [7],45% and 0%
same,Total Cell Count,[2]; [7],232 and 3493
same,Population Healthy Nuclei (%),[3]; [8],23% and 4%
same,Population Normal (%),[3]; [8],36% and 0%
same,Total Cell Count,[3]; [8],775 and 2624
same,Population Healthy Nuclei (%),[3]; [9],17% and 1%
same,Population Mitotic Cells (%),[3]; [9],52% and 0%
same,Population Normal (%),[3]; [9],31% and 4%
same,Population Pyknosed Nuclei (%),[3]; [9],35% and 1%
same,Total Cell Count,[3]; [9],382 and 3244
same,Population Normal (%),[3]; [4],35% and 0%
same,Population Healthy Nuclei (%),[3]; [5],24% and 4%
same,Population Mitotic Cells (%),[3]; [5],51% and 0%
same,Population Normal (%),[3]; [5],30% and 3%
same,Population Pyknosed Nuclei (%),[3]; [5],21% and 2%
same,Total Cell Count,[3]; [5],441 and 3099
same,Population Apoptotic (%),[3]; [10],0% and 42%
same,Population Healthy Nuclei (%),[3]; [10],0% and 33%
same,Population Normal (%),[3]; [10],0% and 32%
same,Total Cell Count,[3]; [10],2900 and 801
same,Population Healthy Nuclei (%),[3]; [11],19% and 3%
same,Population Mitotic Cells (%),[3]; [11],62% and 0%
same,Population Normal (%),[3]; [11],30% and 3%
same,Population Pyknosed Nuclei (%),[3]; [11],26% and 2%
same,Total Cell Count,[3]; [11],391 and 3227
same,Population Apoptotic (%),[3]; [6],0% and 43%
same,Population Healthy Nuclei (%),[3]; [6],0% and 30%
same,Population Mitotic Cells (%),[3]; [6],0% and 56%
same,Population Normal (%),[3]; [6],0% and 31%
same,Population Pyknosed Nuclei (%),[3]; [6],0% and 50%
same,Total Cell Count,[3]; [6],2858 and 947
same,Population Healthy Nuclei (%),[3]; [7],6% and 23%
same,Population Membrane Permeable-Phenotype (%),[3]; [7],50% and 11%
same,Population Normal (%),[3]; [7],2% and 25%
same,Total Cell Count,[3]; [7],3125 and 436
CCOCCn1cc(C(=O)Nc2ccc(-n3nc(-c4cccnc4)cc3C(F)(F)F)cn2)ccc1=O [BI 1935],Population Apoptotic (%),[1]; [4],"69%, 21%, 16%"
same,Population Mitochondria Different-Phenotype (%),[1]; [4],"95%, 14%, 6%"
same,Population Pyknosed Nuclei (%),[1]; [4],"57%, 33%, 18%"
same,Population Tubulin-Different-Phenotype (%),[1]; [4],"95%, 37%, 6%"
same,Population Apoptotic (%),[1]; [5],"28%, 15%, 5%"
same,Population Hoechst High Intensity Objects (%),[1]; [5],"8%, 3%, 2%"
same,Population Mitochondria Different-Phenotype (%),[1]; [5],"69%, 33%, 7%"
same,Population Pyknosed Nuclei (%),[1]; [5],"66%, 11%, 4%"
same,Population Tubulin-Different-Phenotype (%),[1]; [5],"72%, 70%, 7%"
same,Total Cell Count,[1]; [5],"216, 1064, 1871"
same,Population Apoptotic (%),[1]; [6],"70%, 24%, 19%"
same,Population Membrane Permeable-Phenotype (%),[1]; [6],3% and 11%
same,Population Mitochondria Different-Phenotype (%),[1]; [6],"95%, 16%, 5%"
same,Population Pyknosed Nuclei (%),[1]; [6],"46%, 20%, 8%"
same,Population Tubulin-Different-Phenotype (%),[1]; [6],"94%, 58%, 7%"
same,Population Apoptotic (%),[1]; [7],"46%, 11%, 1%"
same,Population Fragmented Nuclei (%),[1]; [7],"4%, 5%, 26%"
same,Population Membrane Permeable-Phenotype (%),[1]; [7],"6%, 15%, 4%"
same,Population Mitochondria Different-Phenotype (%),[1]; [7],"68%, 22%, 1%"
same,Population Pyknosed Nuclei (%),[1]; [7],"51%, 6%, 1%"
same,Population Tubulin-Different-Phenotype (%),[1]; [7],"83%, 85%, 8%"
same,Total Cell Count,[1]; [7],"217, 1367, 3188"
same,Population Fragmented Nuclei (%),[2]; [4],16% and 4%
same,Population Membrane Permeable-Phenotype (%),[2]; [4],"60%, 17%, 12%"
same,Population Mitochondria Different-Phenotype (%),[2]; [4],"13%, 53%, 17%"
same,Population Pyknosed Nuclei (%),[2]; [4],"11%, 20%, 3%"
same,Population Tubulin-Different-Phenotype (%),[2]; [4],"57%, 71%, 17%"
same,Population Membrane Permeable-Phenotype (%),[2]; [5],"56%, 8%, 10%"
same,Population Pyknosed Nuclei (%),[2]; [5],"17%, 26%, 5%"
same,Population Tubulin-Different-Phenotype (%),[2]; [5],"40%, 64%, 18%"
same,Population Fragmented Nuclei (%),[2]; [6],23% and 4%
same,Population Membrane Permeable-Phenotype (%),[2]; [6],"16%, 40%, 8%"
same,Population Pyknosed Nuclei (%),[2]; [6],"13%, 8%, 3%"
same,Population Tubulin-Different-Phenotype (%),[2]; [6],"59%, 36%, 17%"
same,Population Membrane Permeable-Phenotype (%),[2]; [7],"42%, 10%, 6%"
same,Population Pyknosed Nuclei (%),[2]; [7],23% and 4%
same,Population Mitochondria Different-Phenotype (%),[3]; [4],54% and 6%
same,Population Mitotic Cells (%),[3]; [4],"14%, 47%, 38%"
same,Population Tubulin-Different-Phenotype (%),[3]; [4],"90%, 26%, 6%"
same,Total Cell Count,[3]; [4],"91, 305, 229"
same,Population Fragmented Nuclei (%),[3]; [5],"61%, 62%, 8%"
same,Population Healthy Nuclei (%),[3]; [5],"34%, 18%, 65%"
same,Population Hoechst High Intensity Objects (%),[3]; [5],"37%, 39%, 7%"
same,Population Mitochondria Different-Phenotype (%),[3]; [5],"5%, 0%, 47%"
same,Population Mitotic Cells (%),[3]; [5],"0%, 57%, 52%"
same,Population Pyknosed Nuclei (%),[3]; [5],"4%, 18%, 26%"
same,Population Mitochondria Different-Phenotype (%),[3]; [6],"40%, 8%, 0%"
same,Population Tubulin-Different-Phenotype (%),[3]; [6],"91%, 31%, 4%"
same,Total Cell Count,[3]; [6],"89, 292, 238"
same,Population Fragmented Nuclei (%),[3]; [7],"48%, 54%, 9%"
same,Population Hoechst High Intensity Objects (%),[3]; [7],39% and 8%
same,Population Membrane Permeable-Phenotype (%),[3]; [7],"5%, 22%, 10%"
same,Population Mitochondria Different-Phenotype (%),[3]; [7],"5%, 11%, 50%"
same,Population Pyknosed Nuclei (%),[3]; [7],"6%, 20%, 23%"
